This is an account of results in PubChem BioAssay AID1240 (Sanford-Burnham Center for Chemical Genomics, 2008).

Values joined by “and” are separate entries in the source; they are usually repeats but may differ in a detail not shown here. Identical values can stand only once. Out of some 50,000 compounds screened, about 800 (1.6%) showed an effect of 50% or more. The list shows a part of the results.

The target in the test is Bcl-2-like protein 10 (Homo sapiens) (UniProt Q9HD36). Kind of test: Phenotype converters, Bcl-B/TR3 peptide binding displacement, primary biochemical FP (AID 1240).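 Further: 0% = Bcl-B with tracer peptide and DMSO and 100% = tracer peptide lacking Bcl-B.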 The following applies: GST-Bcl-B / FITC-TR3 peptide fluorescence polarization; stronger effect = higher value; compound at 3.75 mg/L. On the technique in general: Fluorescence polarisation rises when a labelled molecule tumbles more slowly, as on binding a larger partner.
Chain of UniProt Q9HD36 (Q9HD36 whole entry, looked up): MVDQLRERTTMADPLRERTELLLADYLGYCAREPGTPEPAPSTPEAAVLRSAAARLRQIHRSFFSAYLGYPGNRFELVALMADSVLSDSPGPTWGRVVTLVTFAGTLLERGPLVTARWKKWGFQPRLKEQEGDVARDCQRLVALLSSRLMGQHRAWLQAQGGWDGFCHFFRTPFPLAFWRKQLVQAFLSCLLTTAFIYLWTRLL
With `CCOC(=O)c1c(NC(=O)C2(c3ccccc3)CCCC2)sc2c1CC(C)(C)OC2`, the displacement was -7.4%.
Next, `COc1ccccc1CC1CC(=O)N(c2ccc([N+](=O)[O-])cc2)C1=O` (centres undefined): 11.1%; `O=C(N/C(=C/c1ccc(Br)cc1)C(=O)N1CCCC1)c1ccccc1F`: -8.9%; `CCOc1ccc(Cl)cc1/C=c1\sc2nc3ccccc3n2c1=O`: 13.4%.
Next, `COc1ccccc1N1CCN(C(=O)CN(c2ccccc2C)S(C)(=O)=O)CC1`: -15.9%; `Cc1ccccc1NC(=O)c1c(NC(=O)c2ccccc2C)sc2c1CCCCC2`: 13%.
To `COc1cccc(N2C(=O)C(=O)/C(=C(\O)c3ccccc3)C2c2ccc(OC)cc2OC)c1` (centres undefined) belongs 6.8%; to `COc1ccc(/C=C2/SC(=S)N(c3cccc(Cl)c3)C2=O)c2ccccc12`, 15.4%.
Turning to `N=c1n(N)c2ccccc2n1CCO`, the displacement is -2.3%.
To `N#C/C(=C/c1cc(Br)cc(Br)c1O)c1ccc([N+](=O)[O-])cc1` belongs 3.2%; to `O=C(O)c1ccc(NC(=O)c2ccccc2F)c(NC(=O)c2ccccc2F)c1`, 12.6%.
Take `COC(=O)c1ccc(CN2CCc3ccccc3C2)cc1`: the displacement came to 1.7%.
To `O=[N+]([O-])c1ccc(NCCCNS(=O)(=O)c2ccc(Cl)cc2)cc1` belongs 9.2%; to `COc1cccc(C(=O)N2CCN(Cc3ccc(SC)cc3)CC2)c1`, -9.1%.
Next, `Cc1cc(C2CCC(c3ccc(NC(=O)c4cccs4)c(C)c3)CC2)ccc1NC(=O)c1cccs1` (centres undefined): -5%; `c1ccc(-c2n[nH]c(C3COc4ccccc4O3)c2-c2nc3ccccc3[nH]2)cc1` (centres undefined): 6%; `Cc1ccc(S(=O)(=O)n2cc(/C=C3\SC(N)=NC3=O)c3ccccc32)cc1`: 11.2%.
`CC1=C(C(=O)Nc2ccccc2C)C(c2ccccc2Br)NC(=O)N1` (centres undefined): the displacement was found to be 13.8%.
Next, `O=C(NC(=O)c1ccccn1)NC(c1ccccc1)c1ccccc1`: -2.1% and 8.8%; `O=C(O)C1CC=CCC1C(=O)Nc1ccccc1Nc1ccccc1` (centres undefined): -6.1%; `COc1ccc(Cl)cc1NS(=O)(=O)c1ccc(F)cc1`: -16.7%.
Next, `Cc1ccc(-c2cc(C(=O)NCCN3CCOCC3)c3ccccc3n2)cc1`: -0.2%; `Brc1ccc(-c2nc(-c3ccncc3)no2)cc1`: -4.6%.
As to `CC1CCN(c2ccc(C(=O)c3ccccc3)cc2F)CC1`, the displacement was -9.7%.
Next, `O=C(COc1ccccc1Cl)Nc1cccc(-c2nc3ncccc3o2)c1`: 42.5%; `C=CCC(Nc1ccccc1)C12C=CC(O1)C(C(=O)OC)=C2C(=O)OC` (centres undefined): -12.8%.
To `CC(=O)OCC12COC(c3ccc4c(c3)OCO4)C(C(C)=CC1C)C2C` (centres undefined) belongs 0.6%; to `O=C1/C(=C/N2CCCCC2)c2ccccc2C(=O)N1c1ccccc1`, 1.8%; to `O=C(NCCCn1ccnc1)c1ccccc1[N+](=O)[O-]`, 3.9%.
Next, `O=c1c2c(nc3cc(-c4ccc(Br)cc4)[nH]n13)CCCC2`: 11%.
On to `COc1cc(/C=N/Nc2ccc3ccccc3n2)c([N+](=O)[O-])cc1OC`, for which the displacement is -36.3%.
Next, `COC(=O)c1ccc(-n2ncnc2-c2cccc(Br)c2)cc1`: -7.8%.
On to `O=S(=O)(Nc1ccc(O)cc1)c1ccc(F)cc1`, for which the displacement was found to be 10.3%.
As to `COc1ccc(NC(=O)C2=C(C)NC(=O)NC2c2cccc(OC)c2)cc1` (centres undefined), the displacement was -15.9%.
Next, `CCSc1nnc2n(Cc3ccccc3)c(=O)c3c4c(sc3n12)CC(C(C)(C)C)CC4` (centres undefined): -8.9%; `FC(F)(F)c1cc(-c2cccs2)c2nncn2n1`: 3.6%; `CC(=O)c1ccc(N2CCN(C3CC(=O)N(c4ccc(C)cc4)C3=O)CC2)cc1` (centres undefined): 2%.
Next, `COc1ccc(/C=C2\SC(=S)NC2=O)c(OC)c1OC`: 5.6%; `O=C1NC(=O)/C(=C/c2ccc3c(c2)OCO3)S1`: 36.2%.
For `COc1ccc(N2C(=O)CC(Nc3ccc(O)cc3)C2=O)cc1` (centres undefined), the displacement is 6%.
Next, `Cc1cccc(OCCOc2cccc(/C=N/n3cnnc3)c2)c1`: 0.9%.
Turning to `Brc1ccc(-c2noc(-c3ccc(-c4ccccc4)cc3)n2)cc1`, the displacement was -5.3%.
To `OC(C#CC(O)(c1ccccc1)c1ccccc1)c1cccnc1` (centres undefined) belongs 5%; to `CC(C)c1ccc(N(CC(=O)N(C)Cc2ccccc2)S(=O)(=O)c2ccccc2)cc1`, 1.1%; to `CS(=O)(=O)N(CC(=O)N1CCOCC1)c1ccccc1Br`, 10.2%.
To `COc1ccc(COC(=O)C2=C(C)NC(=O)NC2c2ccccc2F)cc1` (centres undefined) belongs 2.3%.
To `Cc1cccc(C)c1NC(=O)c1ccc(C2SCC(=O)N2Cc2ccccc2)cc1` (centres undefined) belongs -5.1%.
Consider `O=C(NC(=S)Nc1ccc2oc(-c3ccc(F)cc3)nc2c1)c1ccco1`, for which the displacement turned out to be 35.5%.
Next, `CC(=O)NN1C(=O)/C(=C/c2ccc(Br)o2)SC1=S`: 0.4%; `CCOC(=O)NC(Nc1cc(F)ccc1C)(C(F)(F)F)C(F)(F)F`: 4.3%.
As to `CC1=C(C(=O)Nc2ccccc2)C(c2ccccc2Br)NC(=S)N1` (centres undefined), the displacement is -1.9%.
To `Cc1ccc(C)c(S(=O)(=O)Nc2ccc(C)c(C)c2)c1` belongs 16.2%.
In the case of `NC(=O)c1ccc(Oc2ccc([N+](=O)[O-])cc2)cc1`, the displacement is 1.2%.
Take `COc1ccc(N2C(=O)C3C(C2=O)N2CCCN2C3c2ccc(Cl)cc2)cc1` (centres undefined): the displacement was -0.1%.
Next, `COc1ccc(NC(=O)C2CC(=O)N(c3ccc(Br)cc3)C2)c(OC)c1` (centres undefined): 9.5%; `Brc1ccc2ncnc(NCc3cccnc3)c2c1`: 1.9%; `O=C(O)/C=C/C(=O)Nc1ccc(C2(c3ccc(NC(=O)/C=C/C(=O)O)cc3)c3ccccc3-c3ccccc32)cc1`: 11.8%.
Next, `COc1cc(NC(=O)c2cccc([N+](=O)[O-])c2)ccc1NC(=O)c1ccco1`: 8.7%; `CCOc1ccc(C(NC(=O)c2ccc(F)cc2)c2ccc(OC)c(OC)c2)cc1` (centres undefined): 2.1%.
To `COC(=O)c1ccc(NC(=O)c2ccc(F)cc2)cc1` belongs -1.9%.
For `COc1ccc(S(=O)(=O)N/N=C/c2cn(Cc3ccccc3)c3ccccc23)cc1`, the displacement was -4.1%.
For the compound `CCOC(=O)CNC(=O)c1ccc(C#CC(C)(C)O)cc1`, the displacement was -14.2%.
Next, `NNC(=O)COc1ccccc1OCCOCCOc1ccccc1OCC(=O)NN`: -10.4%; `Oc1c(N=Nc2cc(C(F)(F)F)ccc2Cl)sc2ccccc12`: -18.9%.
To `CCOc1cc(/C=N/NC(=O)c2cc(C)[nH]n2)ccc1Oc1ccc([N+](=O)[O-])cc1[N+](=O)[O-]` belongs 0.4%; to `COC(=O)C1=CNC=C(C(=O)OC)C1c1ccc(C)cc1`, 3.5%.
Next, `CS(=O)(=O)N(CC(=O)O)c1ccc(Cl)cc1`: 11.4%.
Consider `O=C(NCCC1=CCCCC1)c1ccc([N+](=O)[O-])cc1`, for which the displacement was determined as 5.7%.
Next, `COc1ccc(Br)cc1C(=O)Nc1ccc(-c2nc3ccccc3s2)c(O)c1`: 2.3%.
